# Hit rate of the full screen: of about 150,000 compounds, about 540 (0.36%) showed an effect of 50% or more. The list shows a part of the results.
# Test system: Plasmodium falciparum
# Assay: Primary screen in NF54 nanoGlo assay, in single point, at 2uM, 72h; a lower Z score goes with more inhibition
# Format: functional, Erythrocyte
# Details: timepoint 72 hour
Structure (SMILES),% Inhibition [%],Z score
O=C(Cn1nc(-n2ccc3ccccc32)ccc1=O)Nc1c[nH]c(=O)[nH]c1=O,-7,1.31
CCc1noc([C@H]2CC(=O)N(c3c(C)cc(C)cc3C)C2)n1,-9,1.74
CC(C)[C@H](NS(=O)(=O)CC1CCCC1)c1nccn1C,3,-0.44
CCCc1occc1C(=O)N[C@@H](Cc1ccccc1)c1ncon1,0,-0.01
Cc1noc(C)c1[C@@H](C)CNC(=O)c1csc(C)c1C,-6,1.01
COc1cccnc1NCc1cnc(-c2ccccn2)s1,-4,0.42
Cn1cnn(CC(=O)N2CCC[C@@H]3COC[C@@H]32)c1=O,-2,0.44
Cc1cc(C(=O)N2CCCN(Cc3ccc(Cl)cc3)CC2)on1,-1,0.15
Cc1nc(O)nc(C)c1CCC(=O)N[C@H]1CC(=O)Nc2ccccc21,3,-0.47
COc1ccc(Cl)cc1[C@H](C)NCCS(N)(=O)=O,-9,1.99
O=C(Cc1cccs1)NCCc1csc(-n2cccn2)n1,-3,0.45
COCc1nnc2n1CC1CCC(C2)N1C(=O)CCc1ccc(OC)cc1 (stereo not given),2,-0.28
Cc1cc(C(=O)N2CC[C@@]3(CCCN(Cc4cccc(F)c4F)C3=O)C2)n[nH]1,-17,2.14
COc1ccc(C(=O)Nc2cccc(C3OC(=O)N(Cc4ccc(C)cc4)C3C(=O)NCc3ccco3)c2)cc1 (stereo not given),-19,1.87
CCc1nccn1CCCNC(=O)[C@H](C)Nc1ncnc2ccc(C)cc12,0,-0.04
COc1cccc(CNCc2ccco2)c1OCc1ccccc1F,3,-0.56
Cc1ccc(C)c(NC(=O)NC2CCOC3(CCOC3)C2)c1 (stereo not given),2,-0.27
CCN1CCC(N[C@@H](C)c2cnc(N3CCCCCCC3)nc2C)CC1,-6,1.01
Cc1cc(Cl)c(C(=O)NC[C@@H](C)CCO)cc1C,8,-1.05
CC(=O)N1CCCN(C(=O)CCc2c(C)nn(C)c2C)CC1,-14,1.22
CC(=O)Nc1nn(CC(F)(F)F)cc1Cl,30,-3.35
CCOC(C)(C)C(=O)NCC[C@H]1CCCOC1,-15,1.41

Structure (SMILES),% Inhibition [%],Z score
Cc1cc(C(=O)Cn2cnc3c2c(=O)n(C)c(=O)n3C)c(C)[nH]1,-9,1.68
COc1ccccc1C(=O)Nc1ccc(N(C)C)c(CN(C(=O)C(C)(C)C)[C@@H](C)c2ccccc2)c1,18,-2.54
O=C(NCCOC1CCCCCC1)c1cn([C@H]2CC[C@@H]2O)nn1,-14,1.93
O=C(Nc1c2c(nn1-c1ccc(Cl)cc1)CCC2)C1=COCCO1,-2,0.27
COc1ccc(OC)c(-c2nc3cc4c(cc3cc2CN2CCCOCC2)OCO4)c1,-6,1.13
O=C(O)c1ccccc1C(=O)N1CC[C@H]2COC(=O)N2c2cc(F)ccc2C1,-3,0.45
CCCC(=O)Nc1nn(Cc2ccccc2)c2cccc(N3CCOCC3)c12,-11,1.35
O=C(c1cnn2c(C(F)(F)F)cc(-c3cccs3)nc12)N1CCC[C@H]1c1cccs1,-16,3.1
C[C@H](NS(=O)(=O)c1ccc2c(c1)OCCCO2)C(=O)Nc1ccc(C(C)(C)C)cc1,18,-1.87
Nc1ccnc(-c2cc(O)cc(CC[C@H]3CCCCN3)c2)n1,-3,0.57
CC[C@H](C)c1cc(C(=O)NCc2nc(CN3CCCCC3)no2)on1,2,-0.28
Cc1cc(C)c(S(=O)(=O)N2CCC[C@@H]2C(=O)NCCc2csc(C)n2)c(C)c1,0,-0.07
OCc1nc2cc(-n3ccnc3-c3ccc(-n4ccnc4)cc3)ccc2[nH]1,-3,0.43
COCc1cc(N[C@H]2CN(C(=O)C3CCCC3)C[C@@H]2C(C)C)ncn1,-8,1.39
CC(C)[C@H](O)C(=O)N1CCC2(CCC(=O)N(CCc3ccncc3)C2)CC1,5,-0.66
COc1cc(S(=O)(=O)N2CC3(CC3)c3ccccc32)ccc1C(=O)O,-6,1.18
O=C(Nc1nncs1)N1CCC[C@@H]1Cc1c(F)cccc1Cl,-14,2.49
Cc1cc(F)ccc1CN1CCn2nc(CNc3ncccn3)cc2C1,5,-1.01
COc1ccccc1C(=O)N1CCOc2ccc(CN3CCCC3)cc2C1,-5,0.88
Cc1nc(C)n(C2CN(c3ccc(C(F)(F)F)c(C#N)n3)C2)n1,-20,3.84
O=C(NCCc1ccccc1)C1Cc2cc(C(F)(F)F)ccc2N2CCN(CCOc3ccccc3)CC12 (stereo not given),4,-0.54
COc1ccc(CN(Cc2cc3n(n2)CCCC3)[C@H]2CCS(=O)(=O)C2)cc1,-14,2.74

Structure (SMILES),% Inhibition [%],Z score
O=C1CCCC(=O)N1Cc1ccc(C(F)(F)F)c(F)c1,-8,0.92
OCC(CO)N1CCc2onc(-c3ccc4c(c3)OCO4)c2C1,-16,2.97
CCNc1n[nH]c(N)c1-c1nc(-c2ccc(Cl)cc2)no1,-5,0.48
N#Cc1ccc(OCCNC(=O)Nc2cccnc2)cc1,-5,0.83
O=C(Nc1ccnn1Cc1ccccc1Cl)c1cc(O)nc2ccccc12,-3,0.52
Cc1nn(Cc2cccc(C(=O)Nc3nc4ccccc4n3Cc3ccccc3)c2)c(C)c1Cl,7,-0.98
CCn1cc([C@H]2OCC[C@@H]2CN2CCC3(CCc4ccccc4C3=O)CC2)cn1,1,-0.08
Cc1noc(C)c1C(=O)NC[C@H]1CCOC1,-4,0.54
Cc1cnc(N2CCC[C@H](O)CC2)nc1N(C)C,-3,0.63
Cc1cccnc1CN(C)Cc1ncc(Cl)n1C,23,-2.35
COc1ccc(C(=O)N2CCC[C@H]2C(=O)N[C@H]2CC[C@H](NC(=O)c3ccccc3)CC2)cc1,-7,0.89
Cc1cc(C)cc(N(CC(=O)Nc2ccc3c(c2)n(C)c(=O)n3C)S(C)(=O)=O)c1,28,-3.18
N#Cc1ccc(NCCCOc2ccc(F)cc2)cc1,-10,1.27
O=C(NCc1cccnc1)c1cn(Cc2cccc3ccccc23)nn1,-8,1.05
COCCNC(=O)CCc1c(-c2ccc(C)cc2)nc2ccc(-c3cccc(C)c3)cn12,-8,1.24
CN(C)C1(CNCc2cccc(O)c2Cl)CCCCC1,-21,2.7
COCCC[C@H]1CCCCN1Cc1cc(CC(C)C)[nH]n1,-12,1.59
Cn1cc(S(=O)(=O)NC[C@@H](c2ccco2)n2cccn2)cn1,0,0.03
CN(CC1CCCC1)c1cncc(-n2cccn2)n1,-4,0.52
O=C(C1CCCCC1)N1CC(OCc2cccc(F)c2)C1,-8,1.41
Cc1n[nH]c(C)c1CNC(=O)c1ccc(-n2cnnc2)nc1,-4,0.57
C1C[C@H](Nc2nnc(C3CC3)s2)C2(C1)CCOCC2,-2,0.24

Structure (SMILES),% Inhibition [%],Z score
C[C@@H](c1ncc(C(C)(C)C)o1)N1CCc2c(ncn(C)c2=O)C1,1,-0.11
CC1CN(Cc2nc(-c3ccco3)no2)C(C)CO1 (stereo not given),-10,1.26
CC[C@H](Nc1cc(OC)ncn1)c1cnn(C)c1,-21,2.07
CC[C@]1(CO)CCCN1C(=O)Nc1ccc(C(C)(C)C)nn1,-10,1.02
CCc1ncnc(N2CCN(c3ncnc4sccc34)CC2)c1F,-3,0.25
Fc1cccc(Br)c1CN1CCc2[nH]ncc2C1,-14,1.57
Cc1nc(N)nn1C(=O)CCC(=O)c1ccc2c(c1)OCCO2,6,-1.17
Cc1ccc(S(=O)(=O)NCC2CCC(C(=O)O)CC2)cc1 (stereo not given),-6,0.79
Cc1cc(C)n(CC(=O)N2CCN3C(=O)OC[C@H]3C2)n1,-4,0.74
COc1cccnc1CC(=O)N1CCc2nc[nH]c2[C@H]1c1cccnc1,-2,0.47
Cn1c(-c2n[nH]c3c2CCCC3)nnc1N1CCNC(=O)CC1,-12,1.64
COCCN1C(=O)C[S@+]([O-])C12CCN(C(=O)NCCc1ccccc1)CC2,-9,1.71
CCc1nn(C)c(Cl)c1CN(CC)[C@H]1COC[C@@H]1O,0,-0.09
CN(CCC1CCCC1)S(C)(=O)=O,-6,0.83
O=C1NCCCC[C@@H]1Nc1ccc2c(c1)OCCO2,6,-0.95
O=C(CC1CCCC1)NC1CCN(C(=O)c2c[nH]c3cc(F)ccc23)CC1,3,-0.48
O=C(N[C@H]1CC[C@@H](C(=O)Nc2ccc3c(c2)CCC3)C1)c1cc(C2CC2)no1,1,-0.17
Cn1nccc1CCC(=O)N1CCOCC1C1CCCCC1=O (stereo not given),8,-1.15
Cc1n[nH]c([C@H]2CCCN(CCOCc3ccccc3)C2)n1,-13,2.34

# — ChEMBL document CHEMBL4888484, “Replenishing the malaria drug discovery pipeline: Screening and hit evaluation of the MMV Hit Generation Library 1 (HGL1) against asexual blood stage Plasmodium falciparum ,using a nano luciferase reporter read-out” (2022)
